Earlier results in PMC11006913.
This is one part of the list.

Target: ISX (Homo sapiens) (UniProt Q2M1V0)
Details: PBM; conditions not shown; double strand, one strand shown; scale: upbm affinity estimate (log intensity, higher = more binding, comparable within an allelic series)

| Sequence | binding signal |
| --- | --- |
| GCCTCGCC [8-mer GCCTCGCC] | 9.5 |
| CCCCCCCC [8-mer CCCCCCCC] | 9.28 |
| CCAGTGGG [8-mer CCAGTGGG] | 9.75 |
| CTGCTGGC [8-mer CTGCTGGC] | 9.7 |
| CACATTTA [8-mer CACATTTA] | 11.4 |
| ACCGGGCC [8-mer ACCGGGCC] | 9.86 |
| GAGTCCGC [8-mer GAGTCCGC] | 9.73 |
| CACGGCGG [8-mer CACGGCGG] | 9.65 |
| TGGCGCCA [8-mer TGGCGCCA] | 9.89 |
| AGTGTTAT [8-mer AGTGTTAT] | 10.9 |
| GGGGGAAC [8-mer GGGGGAAC] | 9.6 |
| GGCATTTA [8-mer GGCATTTA] | 11.2 |
| CAAATTGA [8-mer CAAATTGA] | 13.1 |
| CCACTGGC [8-mer CCACTGGC] | 9.74 |
| CCGCAGCC [8-mer CCGCAGCC] | 9.8 |
| CCCCGGGC [8-mer CCCCGGGC] | 9.7 |
| CGCCCGGC [8-mer CGCCCGGC] | 9.66 |
| ATAAGGGC [8-mer ATAAGGGC] | 10.9 |
| ACAACTTA [8-mer ACAACTTA] | 11.3 |
| CCCGCGAC [8-mer CCCGCGAC] | 9.72 |

| Sequence | binding signal |
| --- | --- |
| CTTGTTTA [8-mer CTTGTTTA] | 11 |
| ACGCCGGC [8-mer ACGCCGGC] | 9.61 |
| CCGGCGAG [8-mer CCGGCGAG] | 9.76 |
| AATATAGG [8-mer AATATAGG] | 11.1 |
| GCCGGGGA [8-mer GCCGGGGA] | 9.59 |
| ACCTGGGC [8-mer ACCTGGGC] | 9.75 |
| CGCGCCCG [8-mer CGCGCCCG] | 9.81 |
| TCCCGGGA [8-mer TCCCGGGA] | 9.95 |
| CCTAATCA [8-mer CCTAATCA] | 13.4 |
| CCGCTCCG [8-mer CCGCTCCG] | 9.87 |
| CCCGCGCA [8-mer CCCGCGCA] | 9.74 |
| AATAGTTA [8-mer AATAGTTA] | 12.1 |
| CCCGGGGC [8-mer CCCGGGGC] | 9.84 |
| CGAGCCCG [8-mer CGAGCCCG] | 9.84 |
| CGGCGCGC [8-mer CGGCGCGC] | 9.67 |
| GCGGAGCC [8-mer GCGGAGCC] | 9.74 |
| CCCTGCGG [8-mer CCCTGCGG] | 9.78 |
| GCGGTCAC [8-mer GCGGTCAC] | 9.7 |
| AGTTTAGA [8-mer AGTTTAGA] | 10.9 |
| CGGCTTCC [8-mer CGGCTTCC] | 9.8 |

Target: ISX R83Q (Homo sapiens) (UniProt Q2M1V0)
Details: PBM; conditions not shown; double strand, one strand shown; scale: upbm affinity estimate (log intensity, higher = more binding, comparable within an allelic series)

| Sequence | binding signal |
| --- | --- |
| GCCTCGCC [8-mer GCCTCGCC] | 9.6 |
| CCCCCCCC [8-mer CCCCCCCC] | 9.6 |
| CCAGTGGG [8-mer CCAGTGGG] | 9.82 |
| CTGCTGGC [8-mer CTGCTGGC] | 9.68 |
| ACCGGGCC [8-mer ACCGGGCC] | 9.82 |
| GAGTCCGC [8-mer GAGTCCGC] | 9.77 |
| CACGGCGG [8-mer CACGGCGG] | 9.73 |
| TGGCGCCA [8-mer TGGCGCCA] | 9.73 |
| GGGGGAAC [8-mer GGGGGAAC] | 9.59 |
| CAAATTGA [8-mer CAAATTGA] | 11.7 |
| CCACTGGC [8-mer CCACTGGC] | 9.81 |
| CCGCAGCC [8-mer CCGCAGCC] | 9.78 |
| CCCCGGGC [8-mer CCCCGGGC] | 9.75 |
| CGCCCGGC [8-mer CGCCCGGC] | 9.62 |
| CCCGCGAC [8-mer CCCGCGAC] | 9.69 |
| ACGCCGGC [8-mer ACGCCGGC] | 9.73 |

| Sequence | binding signal |
| --- | --- |
| CCGGCGAG [8-mer CCGGCGAG] | 9.8 |
| GCCGGGGA [8-mer GCCGGGGA] | 9.7 |
| ACCTGGGC [8-mer ACCTGGGC] | 9.62 |
| CGCGCCCG [8-mer CGCGCCCG] | 9.84 |
| TCCCGGGA [8-mer TCCCGGGA] | 9.78 |
| CCTAATCA [8-mer CCTAATCA] | 11.8 |
| CCGCTCCG [8-mer CCGCTCCG] | 9.79 |
| CCCGCGCA [8-mer CCCGCGCA] | 9.75 |
| CCCGGGGC [8-mer CCCGGGGC] | 9.69 |
| CGAGCCCG [8-mer CGAGCCCG] | 9.78 |
| CGGCGCGC [8-mer CGGCGCGC] | 9.71 |
| GCGGAGCC [8-mer GCGGAGCC] | 9.75 |
| CCCTGCGG [8-mer CCCTGCGG] | 9.73 |
| GCGGTCAC [8-mer GCGGTCAC] | 9.78 |
| CGGCTTCC [8-mer CGGCTTCC] | 9.72 |
